In PubChem BioAssay (EPA / NIEHS):
Inconclusive results, whose numbers are uncertain, are shown with a selection of clear calls. For part of these data: Potencies of inconclusive entries are doubtful fits and often do not repeat. Activity calls are given as the source filed them. How the source made its calls: active means hit-call score of the fitted dose curve at least 0.9, where 1 is the maximum; inconclusive means response in the unintended direction; inactive means score below 0.9.

What was measured:
[1] = molecular target: GAL4 Transcription Factor (Internal Marker), GAL4 (gene 855828) (UniProt P04386); assay: ATG_GAL4_XSP1: Attagene TRANS-FACTORIAL Multi-Species (XSP1) HepG2 Assay for GAL4 Transcription Factor (Internal Marker) (AID 2283789)
Summary of the method: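 HepG2 cells transiently transfected with multiplexed GAL4-UAS reporter units were exposed for 24 h with 3 nM 6-alpha-fluorotestosterone present. Reporter mRNA was quantified by RT-PCR, FAM labelling, HpaI digestion and capillary electrophoresis; background-control readout, gain-of-signal versus DMSO.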

[2] = ATG_M_61_XSP1: Attagene TRANS-FACTORIAL Multi-Species (XSP1) HepG2 Assay for M61 Transcription Factor (Internal Marker) (AID 2283797)
Summary of the method: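 HepG2 cells transiently transfected with multiplexed GAL4-driven reporter units, dosed 24 h with 3 nM 6-alpha-fluorotestosterone present. Reporter mRNA quantified by RT-PCR, 6-FAM labelling, HpaI digestion and capillary electrophoresis; internal-marker background control, gain of signal versus DMSO.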

[3] = molecular target: Peroxisome proliferator-activated receptor gamma (Homo sapiens) (UniProt P37231); assay: ATG_hPPARg_XSP1: Attagene TRANS-FACTORIAL Multi-Species (XSP1) HepG2 Assay for human Peroxisome Proliferator-activated Receptor gamma (PPARg) (AID 2283800)
Summary of the method: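 HepG2 cells transiently transfected with GAL4-UAS reporter units carrying chimeric NR-Gal4 proteins; 3 nM 6-alpha-fluorotestosterone present. After 24 h dosing, reporter mRNA quantified by RT-PCR and capillary electrophoresis; gain of signal relative to DMSO.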

[4] = tested on: zebrafish Peroxisome Proliferator-activated Receptor gamma (PPARg), gene 557037; assay: ATG_zfPPARg_XSP1: Attagene TRANS-FACTORIAL Multi-Species (XSP1) HepG2 Assay for zebrafish Peroxisome Proliferator-activated Receptor gamma (PPARg) (AID 2283801)
Summary of the method: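 HepG2 cells transiently transfected with GAL4-UAS reporter units including a zebrafish PPARg–GAL4 chimera, dosed 24 h with 3 nM 6-alpha-fluorotestosterone present. Reporter mRNA quantified by RT-PCR, FAM labelling, HpaI digestion and capillary electrophoresis; induction versus DMSO.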

[5] = ATG_XTT_Cytotoxicity_XSP1: Cytotoxicity Assessment in the Attagene TRANS-FACTORIAL Multi-Species (XSP1) HepG2 Assay (AID 2283810)
Summary of the method: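 XTT viability readout taken at 24 hours post-dosing in HepG2 liver cells co-treated with 3 nM 6-alpha-fluorotestosterone. Signal loss relative to DMSO controls reflects cytotoxicity.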

[6] = ATG_M_06_XSP2: Attagene TRANS-FACTORIAL Multi-Species (XSP2) HepG2 Assay for M06 Transcription Factor (Internal Marker) (AID 2283811);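 further: hits are increases in signal above the DMSO baseline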
Summary of the method: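 HepG2 cells transiently transfected with GAL4-UAS multi-reporter constructs, dosed 24 h with 3 nM 6-alpha-fluorotestosterone plus 1.5 nM norgestrel present to stimulate androgen receptor. Reporter mRNA quantified by RT-PCR, 6-FAM labelling, HpaI digestion and capillary electrophoresis; gain-of-signal fitted versus DMSO baseline.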

[7] = tested on: turtle Androgen Receptor (AR), gene 101947425; assay: ATG_trAR_XSP2: Attagene TRANS-FACTORIAL Multi-Species (XSP2) HepG2 Assay for turtle Androgen Receptor (AR) (AID 2283815);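 on AC50: reporter mRNA from a Gal4 chimera of turtle AR measured by RT-PCR; potency for gain of reporter signal meaning activation above DMSO baseline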
Summary of the method: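 HepG2 cells transiently transfected with GAL4-UAS reporter units for chimeric NR-Gal4 receptors; 24 h dosing in presence of 3 nM 6-alpha-fluorotestosterone and 1.5 nM norgestrel. Reporter mRNA by RT-PCR and capillary electrophoresis, gain of signal versus DMSO.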

[8] = ATG_M_06_XSP1: Attagene TRANS-FACTORIAL Multi-Species (XSP1) HepG2 Assay for M06 Transcription Factor (Internal Marker) (AID 2283790)
Summary of the method: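 Transfected HepG2 multi-reporter system treated 24 h in the presence of 3 nM 6-alpha-fluorotestosterone. The M06 internal marker transcript was quantified by RT-PCR with capillary electrophoresis as a background control, and gain of signal was scored versus DMSO.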

[9] = ATG_M_32_XSP1: Attagene TRANS-FACTORIAL Multi-Species (XSP1) HepG2 Assay for M32 Transcription Factor (Internal Marker) (AID 2283799)
Summary of the method: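 HepG2 cells transiently transfected with multi-species TRANS reporter units, dosed 24 h with 3 nM 6-alpha-fluorotestosterone present. Internal-marker reporter mRNA quantified by RT-PCR and capillary electrophoresis; positive-direction fit versus DMSO.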

[10] = molecular target: frog Thyroid hormone Receptor alpha (TRa), thra-a (gene 397942) (UniProt P15204); assay: ATG_frTRa_XSP1: Attagene TRANS-FACTORIAL Multi-Species (XSP1) HepG2 Assay for frog Thyroid hormone Receptor alpha (TRa) (AID 2283804)
Summary of the method: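 HepG2 cells transiently transfected with frog TRa-GAL4 chimeric reporter units, dosed 24 hr with 3 nM 6-alpha-fluorotestosterone present; reporter mRNA quantified by RT-PCR, fluorescent labelling and capillary electrophoresis, gain of signal versus DMSO.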

[11] = tested on: turtle Thyroid Hormone Receptor, alpha (TRa), gene 101949057; assay: ATG_trTRa_XSP1: Attagene TRANS-FACTORIAL Multi-Species (XSP1) HepG2 Assay for turtle Thyroid Hormone Receptor, alpha (TRa) (AID 2283806)
Summary of the method: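 HepG2 cells transiently transfected with GAL4-UAS reporter units and chimeric receptor-Gal4 constructs, with 3 nM 6-alpha-fluorotestosterone present. Reporter mRNA was quantified 24 h after dosing by RT-PCR, 6-FAM labelling and capillary electrophoresis; gain of signal versus DMSO.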

[12] = molecular target: GAL4 Transcription Factor (Internal Marker), GAL4 (gene 855828) (UniProt P04386); assay: ATG_GAL4_XSP2: Attagene TRANS-FACTORIAL Multi-Species (XSP2) HepG2 Assay for GAL4 Transcription Factor (Internal Marker) (AID 2283814);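 further: GAL4 reporter mRNA background control in MRTU transfected cells not a receptor target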
Summary of the method: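 HepG2 cells transiently transfected with GAL4-UAS reporter units, stimulated with 3 nM 6-alpha-fluorotestosterone plus 1.5 nM norgestrel, dosed 24 h. Reporter mRNA by RT-PCR/capillary electrophoresis; gain-of-signal fit versus DMSO, background control.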

[13] = molecular target: zebrafish Estrogen Receptor (ER1), esr1 (gene 259252) (UniProt P57717); assay: ATG_zfER1_XSP2: Attagene TRANS-FACTORIAL Multi-Species (XSP2) HepG2 Assay for zebrafish Estrogen Receptor (ER1) (AID 2283816)
Summary of the method: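 HepG2 cells transiently transfected with a GAL4-UAS reporter and a chimeric zebrafish ER1-Gal4 construct, dosed 24 h. Reporter mRNA quantified by RT-PCR, labelling, HpaI digestion and capillary electrophoresis, relative to DMSO.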

[14] = molecular target: zebrafish Thyroid Hormone Receptor alpha (TRa), thraa (gene 30670) (UniProt Q98867); assay: ATG_zfTRa_XSP1: Attagene TRANS-FACTORIAL Multi-Species (XSP1) HepG2 Assay for zebrafish Thyroid Hormone Receptor alpha (TRa) (AID 2283807)
Summary of the method: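 HepG2 cells transiently transfected with GAL4-UAS reporter units including a zebrafish TRa–Gal4 chimera, dosed 24 h with 3 nM 6-alpha-fluorotestosterone present. Reporter mRNA quantified by RT-PCR and capillary electrophoresis; gain versus DMSO.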

[15] = molecular target: human Thyroid hormone Receptor beta (TRb), THRB (gene 7068) (UniProt P10828); assay: ATG_hTRb_XSP1: Attagene TRANS-FACTORIAL Multi-Species (XSP1) HepG2 Assay for human Thyroid hormone Receptor beta (TRb) (AID 2283808)
Summary of the method: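 HepG2 cells transiently transfected with reporter units driving GAL4-UAS reporters for chimeric NR-Gal4 proteins; 24 h chemical exposure with 3 nM 6-alpha-fluorotestosterone present. Reporter mRNA quantified by RT-PCR and capillary electrophoresis, gain of signal versus DMSO.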

[16] = molecular target: mouse Peroxisome Proliferator-activated Receptor gamma (PPARg), Pparg (gene 19016) (UniProt P37238); assay: ATG_mPPARg_XSP1: Attagene TRANS-FACTORIAL Multi-Species (XSP1) HepG2 Assay for mouse Peroxisome Proliferator-activated Receptor gamma (PPARg) (AID 2283802)
Summary of the method: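 HepG2 cells transiently transfected with GAL4-UAS reporter units driven by mouse PPARg–GAL4 chimera; 3 nM 6-alpha-fluorotestosterone present. After 24 h dosing, reporter mRNA quantified by RT-PCR, fluorescent labelling and capillary electrophoresis; gain of signal versus DMSO.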

[17] = molecular target: Estrogen receptor beta (Homo sapiens) (UniProt Q92731); assay: ATG_hERb_XSP2: Attagene TRANS-FACTORIAL Multi-Species (XSP2) HepG2 Assay for human Estrogen Receptor (ERb) (AID 2283813);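 further: actives raise reporter mRNA above DMSO so AC50 reflects agonist induction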
Summary of the method: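 HepG2 cells transiently transfected with GAL4-UAS reporter units and chimeric human ERb-Gal4, 24 h exposure. Reporter mRNA quantified by RT-PCR with FAM labelling, HpaI digestion and capillary electrophoresis; gain of signal versus DMSO.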

[18] = molecular target: Nuclear receptor subfamily 1 group I member 2 (Mus musculus) (UniProt O54915); assay: ATG_mPXR_XSP1: Attagene TRANS-FACTORIAL Multi-Species (XSP1) HepG2 Assay for mouse Pregnane X Receptor (PXR) (AID 2283803)
Summary of the method: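 Transiently transfected HepG2 cells expressing a receptor-Gal4 chimera drive a GAL4-UAS reporter; 3 nM 6-alpha-fluorotestosterone included. Reporter mRNA read 24 h post-dose by RT-PCR and capillary electrophoresis; gain of signal relative to DMSO.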

Measured: AC50

UniProt P37231, sequence (P37231 whole entry, looked up, the tested form may be a part): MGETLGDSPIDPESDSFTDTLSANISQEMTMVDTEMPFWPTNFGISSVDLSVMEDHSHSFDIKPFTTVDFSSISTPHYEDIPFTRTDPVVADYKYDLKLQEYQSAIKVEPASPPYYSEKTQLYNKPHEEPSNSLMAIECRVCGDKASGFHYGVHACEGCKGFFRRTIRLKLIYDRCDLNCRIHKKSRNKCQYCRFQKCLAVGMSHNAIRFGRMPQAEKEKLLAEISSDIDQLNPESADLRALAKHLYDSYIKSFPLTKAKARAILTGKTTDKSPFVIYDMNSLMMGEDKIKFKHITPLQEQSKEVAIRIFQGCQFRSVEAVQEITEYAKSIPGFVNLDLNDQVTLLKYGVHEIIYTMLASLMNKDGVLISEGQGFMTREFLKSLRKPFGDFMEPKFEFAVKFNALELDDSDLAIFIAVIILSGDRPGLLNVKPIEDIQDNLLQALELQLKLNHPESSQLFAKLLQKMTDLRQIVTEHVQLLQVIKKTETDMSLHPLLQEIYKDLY
UniProt P57717, sequence (P57717 whole entry, looked up, the tested form may be a part): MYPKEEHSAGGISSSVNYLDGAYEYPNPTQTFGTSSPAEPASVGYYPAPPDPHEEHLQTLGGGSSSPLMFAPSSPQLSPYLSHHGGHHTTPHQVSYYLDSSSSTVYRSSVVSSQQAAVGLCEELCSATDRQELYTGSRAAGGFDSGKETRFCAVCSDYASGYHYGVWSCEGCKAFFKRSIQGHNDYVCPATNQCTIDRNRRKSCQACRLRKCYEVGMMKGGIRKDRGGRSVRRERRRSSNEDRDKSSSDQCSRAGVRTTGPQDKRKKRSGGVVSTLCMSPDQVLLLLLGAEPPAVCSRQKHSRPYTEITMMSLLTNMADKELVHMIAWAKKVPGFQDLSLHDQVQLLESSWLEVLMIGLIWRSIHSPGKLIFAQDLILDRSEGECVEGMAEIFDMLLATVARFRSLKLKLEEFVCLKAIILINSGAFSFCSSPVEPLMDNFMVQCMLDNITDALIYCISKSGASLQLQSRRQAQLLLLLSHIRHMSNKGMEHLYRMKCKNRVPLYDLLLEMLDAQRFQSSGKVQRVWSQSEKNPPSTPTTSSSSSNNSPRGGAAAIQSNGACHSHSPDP
UniProt P15204, sequence (P15204 whole entry, looked up, the tested form may be a part): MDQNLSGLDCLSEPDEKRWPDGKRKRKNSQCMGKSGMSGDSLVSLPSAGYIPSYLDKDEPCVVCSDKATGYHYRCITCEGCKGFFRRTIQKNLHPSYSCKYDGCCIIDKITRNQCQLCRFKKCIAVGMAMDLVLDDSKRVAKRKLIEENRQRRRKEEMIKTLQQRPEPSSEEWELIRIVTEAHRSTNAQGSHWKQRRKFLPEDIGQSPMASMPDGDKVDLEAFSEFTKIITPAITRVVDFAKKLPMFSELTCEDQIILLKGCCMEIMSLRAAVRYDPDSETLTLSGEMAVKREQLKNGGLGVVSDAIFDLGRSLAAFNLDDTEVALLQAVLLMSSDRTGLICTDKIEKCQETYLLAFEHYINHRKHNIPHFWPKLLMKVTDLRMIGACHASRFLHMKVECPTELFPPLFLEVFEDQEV
UniProt P04386, sequence (P04386 whole entry, looked up, the tested form may be a part): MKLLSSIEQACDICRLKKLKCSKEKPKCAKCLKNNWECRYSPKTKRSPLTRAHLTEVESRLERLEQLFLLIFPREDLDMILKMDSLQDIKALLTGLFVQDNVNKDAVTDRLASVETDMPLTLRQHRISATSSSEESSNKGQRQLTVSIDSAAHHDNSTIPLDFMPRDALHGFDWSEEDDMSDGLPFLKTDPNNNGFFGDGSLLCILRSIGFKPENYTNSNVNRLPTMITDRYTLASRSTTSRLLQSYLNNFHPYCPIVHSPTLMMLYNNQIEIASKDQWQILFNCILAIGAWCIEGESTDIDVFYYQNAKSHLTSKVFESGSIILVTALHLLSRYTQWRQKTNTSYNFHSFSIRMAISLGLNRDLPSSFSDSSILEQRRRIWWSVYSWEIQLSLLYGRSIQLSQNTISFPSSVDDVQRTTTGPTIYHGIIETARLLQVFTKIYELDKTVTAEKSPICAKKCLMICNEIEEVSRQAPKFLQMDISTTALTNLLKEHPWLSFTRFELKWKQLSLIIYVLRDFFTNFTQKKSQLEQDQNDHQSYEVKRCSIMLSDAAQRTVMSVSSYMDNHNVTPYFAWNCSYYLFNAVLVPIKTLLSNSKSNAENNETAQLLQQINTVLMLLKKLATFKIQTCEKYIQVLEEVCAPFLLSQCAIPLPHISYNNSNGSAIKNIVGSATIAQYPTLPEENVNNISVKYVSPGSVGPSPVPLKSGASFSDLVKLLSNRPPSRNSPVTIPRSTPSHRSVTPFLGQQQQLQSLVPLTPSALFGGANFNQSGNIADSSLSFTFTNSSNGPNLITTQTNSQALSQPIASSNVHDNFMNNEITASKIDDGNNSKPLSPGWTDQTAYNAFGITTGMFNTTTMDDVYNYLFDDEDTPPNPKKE
UniProt P10828, sequence (P10828 whole entry, looked up, the tested form may be a part): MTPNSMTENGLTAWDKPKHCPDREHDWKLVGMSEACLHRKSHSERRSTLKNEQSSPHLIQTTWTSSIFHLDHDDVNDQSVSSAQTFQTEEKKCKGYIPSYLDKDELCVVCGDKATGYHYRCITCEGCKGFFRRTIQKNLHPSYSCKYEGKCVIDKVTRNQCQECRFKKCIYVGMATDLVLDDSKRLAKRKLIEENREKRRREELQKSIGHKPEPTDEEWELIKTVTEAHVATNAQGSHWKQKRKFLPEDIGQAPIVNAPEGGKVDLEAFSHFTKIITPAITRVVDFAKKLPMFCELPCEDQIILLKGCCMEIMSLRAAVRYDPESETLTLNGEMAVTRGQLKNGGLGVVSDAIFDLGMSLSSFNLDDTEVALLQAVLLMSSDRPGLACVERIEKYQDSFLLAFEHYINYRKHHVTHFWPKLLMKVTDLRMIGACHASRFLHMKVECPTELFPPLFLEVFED
UniProt P37238, sequence (P37238 whole entry, looked up, the tested form may be a part): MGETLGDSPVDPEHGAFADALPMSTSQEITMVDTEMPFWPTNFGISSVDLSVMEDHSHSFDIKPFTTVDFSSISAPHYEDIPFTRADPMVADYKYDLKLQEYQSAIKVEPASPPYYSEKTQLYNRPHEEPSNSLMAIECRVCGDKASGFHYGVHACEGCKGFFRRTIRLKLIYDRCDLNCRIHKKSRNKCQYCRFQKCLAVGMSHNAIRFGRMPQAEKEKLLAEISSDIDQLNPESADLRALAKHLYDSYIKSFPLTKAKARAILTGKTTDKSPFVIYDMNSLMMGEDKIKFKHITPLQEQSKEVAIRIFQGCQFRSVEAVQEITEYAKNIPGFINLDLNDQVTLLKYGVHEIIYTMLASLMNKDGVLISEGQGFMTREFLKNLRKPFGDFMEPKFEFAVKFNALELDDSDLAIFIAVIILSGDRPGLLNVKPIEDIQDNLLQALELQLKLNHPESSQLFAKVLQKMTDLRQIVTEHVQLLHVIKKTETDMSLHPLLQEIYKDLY
UniProt Q92731, sequence (Q92731 whole entry, looked up, the tested form may be a part): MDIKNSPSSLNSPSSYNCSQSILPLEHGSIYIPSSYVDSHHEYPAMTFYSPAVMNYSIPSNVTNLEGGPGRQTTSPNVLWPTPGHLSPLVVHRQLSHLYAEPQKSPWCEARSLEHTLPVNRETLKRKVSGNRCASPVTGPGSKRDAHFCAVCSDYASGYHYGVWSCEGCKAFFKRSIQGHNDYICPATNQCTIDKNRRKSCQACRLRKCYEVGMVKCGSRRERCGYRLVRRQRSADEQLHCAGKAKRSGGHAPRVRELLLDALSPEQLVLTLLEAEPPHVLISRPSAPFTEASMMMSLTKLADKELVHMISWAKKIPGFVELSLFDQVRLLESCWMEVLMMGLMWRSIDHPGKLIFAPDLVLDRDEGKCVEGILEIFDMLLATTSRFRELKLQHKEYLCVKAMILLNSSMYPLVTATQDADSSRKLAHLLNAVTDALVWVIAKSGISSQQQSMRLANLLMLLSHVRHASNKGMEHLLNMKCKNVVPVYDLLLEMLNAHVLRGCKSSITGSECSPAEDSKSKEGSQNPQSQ
UniProt Q98867, sequence (Q98867 whole entry, looked up, the tested form may be a part): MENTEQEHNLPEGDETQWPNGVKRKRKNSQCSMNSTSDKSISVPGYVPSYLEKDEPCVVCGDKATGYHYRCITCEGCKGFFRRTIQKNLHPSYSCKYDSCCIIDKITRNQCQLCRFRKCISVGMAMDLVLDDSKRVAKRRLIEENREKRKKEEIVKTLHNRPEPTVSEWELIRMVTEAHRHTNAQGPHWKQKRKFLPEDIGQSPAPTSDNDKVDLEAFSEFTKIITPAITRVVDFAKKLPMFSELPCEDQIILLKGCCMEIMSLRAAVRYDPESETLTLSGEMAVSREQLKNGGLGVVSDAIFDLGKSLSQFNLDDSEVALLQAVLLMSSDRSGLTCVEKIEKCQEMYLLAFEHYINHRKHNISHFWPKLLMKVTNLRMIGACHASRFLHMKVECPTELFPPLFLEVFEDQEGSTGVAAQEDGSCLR

CC1(C)CCC(=Cc2ccc(Cl)cc2)C1(O)Cn1cncn1 (configuration not stated)
inconclusive: [1] 99.5 µM | [4] 99.5 µM | [6] 100 µM | [7] 3.16 µM
inactive: [2] | [3] | [5]

CCCCCOC(=O)c1ccccc1C(=O)OCCCCC
inconclusive: [10] 0.00914 µM | [11] 100 µM | [6] 100 µM | [12] 100 µM | [13] 100 µM
active: [3] 31.9 µM
inactive: [1] | [8] | [9] | [4] | [7]

COP(=S)(OC)Oc1nc(Cl)c(Cl)cc1Cl
inactive: [6]
inconclusive: [1] 100 µM | [9] 100 µM | [4] 0.8 µM | [10] 100 µM | [14] 179 µM | [15] 100 µM | [5] 100 µM | [12] 100 µM | [13] 25.2 µM
active: [7] 17.5 µM

ClC(Cl)=C(c1ccc(Cl)cc1)c1ccc(Cl)cc1
inconclusive: [1] 0.308 µM | [8] 10 µM | [2] 10 µM | [3] 0.00881 µM | [10] 0.00439 µM | [6] 10 µM | [12] 4.84 µM | [7] 2.67 µM
inactive: [9] | [16] | [15]

CC1(C)C(C=C(Cl)Cl)C1C(=O)OC(C#N)c1ccc(F)c(Oc2ccccc2)c1 (configuration not stated)
inactive: [10] | [12] | [7]
inconclusive: [1] 0.238 µM | [9] 0.216 µM | [6] 100 µM | [17] 100 µM | [13] 26.2 µM

O=S1OCC2C(CO1)C1(Cl)C(Cl)=C(Cl)C2(Cl)C1(Cl)Cl (configuration not stated)
inconclusive: [1] 10 µM | [9] 10 µM | [4] 10 µM | [10] 10 µM | [12] 0.00869 µM | [7] 3.64 µM
active: [18] 0.512 µM
inactive: [3] | [16]
